About 14,000 (4.5%) of roughly 310,000 compounds showed an effect of 50% or more. The effect is printed as a negative number. The list shows a part of the results.
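Further: peak tail current of the secondary pulse compared with the same well before compound.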

human ether-à-go-go-related gene (hERG) potassium channel, sequence (Q12809 whole entry, looked up): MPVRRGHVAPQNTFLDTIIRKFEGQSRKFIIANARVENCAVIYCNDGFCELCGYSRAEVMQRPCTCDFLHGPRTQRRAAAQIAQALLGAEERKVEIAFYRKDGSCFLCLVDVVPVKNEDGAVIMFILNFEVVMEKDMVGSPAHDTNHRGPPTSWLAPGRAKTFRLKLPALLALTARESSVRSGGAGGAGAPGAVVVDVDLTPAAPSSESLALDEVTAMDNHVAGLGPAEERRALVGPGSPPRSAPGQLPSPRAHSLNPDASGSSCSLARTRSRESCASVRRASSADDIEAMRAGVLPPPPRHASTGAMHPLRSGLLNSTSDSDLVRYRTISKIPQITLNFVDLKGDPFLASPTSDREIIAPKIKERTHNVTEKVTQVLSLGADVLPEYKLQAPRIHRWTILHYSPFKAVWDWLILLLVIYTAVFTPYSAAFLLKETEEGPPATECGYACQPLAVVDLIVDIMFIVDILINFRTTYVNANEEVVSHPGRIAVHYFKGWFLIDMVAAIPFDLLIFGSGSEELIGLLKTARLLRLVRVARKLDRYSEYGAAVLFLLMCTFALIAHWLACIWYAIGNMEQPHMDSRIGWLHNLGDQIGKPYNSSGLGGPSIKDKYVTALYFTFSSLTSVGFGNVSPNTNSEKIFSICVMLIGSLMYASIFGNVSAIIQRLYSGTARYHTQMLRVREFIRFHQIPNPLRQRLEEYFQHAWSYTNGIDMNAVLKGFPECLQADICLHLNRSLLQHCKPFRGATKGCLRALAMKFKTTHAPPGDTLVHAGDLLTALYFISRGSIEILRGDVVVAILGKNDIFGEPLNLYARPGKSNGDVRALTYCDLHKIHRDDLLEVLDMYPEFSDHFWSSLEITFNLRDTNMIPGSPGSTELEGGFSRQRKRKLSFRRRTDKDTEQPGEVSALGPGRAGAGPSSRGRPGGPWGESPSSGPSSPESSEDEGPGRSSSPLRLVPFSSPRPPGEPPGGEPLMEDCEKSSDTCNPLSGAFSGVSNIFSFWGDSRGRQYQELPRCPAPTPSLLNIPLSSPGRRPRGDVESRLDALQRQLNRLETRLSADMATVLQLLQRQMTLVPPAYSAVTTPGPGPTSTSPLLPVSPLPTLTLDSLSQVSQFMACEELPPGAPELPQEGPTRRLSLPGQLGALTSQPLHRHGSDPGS

The assay has as its target human ether-à-go-go-related gene (hERG) potassium channel (human, UniProt Q12809). Kind of assay: primary screen, population patch clamp on CHO cells stably expressing hERG.
For `Cc1ccc(C(=O)N2CCN(S(=O)(=O)c3ccccc3C#N)CC2)cc1S(=O)(=O)N1CCOCC1`, the “hERG current change (%, negative = inhibition) at 10uM” value is given as -9.33%.

With `Cc1ccc(S(=O)(=O)N(C)C)cc1NC(=O)COC(=O)c1ccc2c(c1)OCCO2`, the “hERG current change (%, negative = inhibition) at 10uM” value came to 2.61%.

On to `CCCn1c(=O)c(C(=O)NCc2cccnc2)c(O)c2ccccc21`, for which the “hERG current change (%, negative = inhibition) at 10uM” value was -34.7%.

Turning to `CC(C)(C)NC(=O)C(c1ccco1)N(Cc1ccc(F)cc1)C(=O)c1snc(C(N)=O)c1N` (centres unmarked), the “hERG current change (%, negative = inhibition) at 10uM” value is on record as -3.3%.

Consider `O=C(Nc1ccc(S(=O)(=O)Nc2ccccn2)cc1)c1cccc(Cl)c1`, for which the “hERG current change (%, negative = inhibition) at 10uM” value is 8.46%.

Consider `CCOc1ccc(C2/C(=C(\O)c3ccc4c(c3)OCCO4)C(=O)C(=O)N2CCCN2CCOCC2)cc1` (centres unmarked), for which the “hERG current change (%, negative = inhibition) at 10uM” value turned out to be 16%.

Regarding `O=C(c1cc2ccccc2c(=O)o1)N1CCc2ccccc2C1`, the “hERG current change (%, negative = inhibition) at 10uM” value was -6.12%.

Turning to `O=C(NCCNC(=O)c1ccccn1)c1ccc(Cl)cc1`, the “hERG current change (%, negative = inhibition) at 10uM” value came to 5.5%.

Regarding `O=c1c2ccccc2c(C=Nc2cccc(S(=O)(=O)NC3=NCCCCC3)c2)c(O)n1Cc1ccccc1`, the “hERG current change (%, negative = inhibition) at 10uM” value stood at 0.92%.

With `CC(=O)Oc1c(C(=O)c2nnc(C)o2)c(=O)n(Cc2ccccc2)c2ccccc12`, the “hERG current change (%, negative = inhibition) at 10uM” value is 1.56%.

As for `Nn1c(Cc2ccccc2F)nnc1SCn1nnc2ccccc2c1=O`, the “hERG current change (%, negative = inhibition) at 10uM” value is recorded as -4.66%.

On to `CC(=O)N1CCC(=NNS(=O)(=O)c2ccc(C)c([N+](=O)[O-])c2)CC1`, for which the “hERG current change (%, negative = inhibition) at 10uM” value is -16.6%.

For `CCCCS(=O)(=O)N1CCN(C(=N)N[N+](=O)[O-])CC1`, the “hERG current change (%, negative = inhibition) at 10uM” value came out at 6.5%.

In the case of `Cc1c(NC(=O)c2ccccc2N(C)S(=O)(=O)c2ccccc2)c(=O)n(-c2ccccc2)n1C`, the “hERG current change (%, negative = inhibition) at 10uM” value is listed as -4.4%.

Consider `Cc1ccc2c(c1)C(c1ccc(F)cc1)N(C(=O)C1CC1)CC(=O)N2` (centres unmarked), for which the “hERG current change (%, negative = inhibition) at 10uM” value worked out at 2.95%.

`CCOC(=O)c1ccc(NC(=O)CSc2nnc(C3CCCCC3)n2C)cc1`: the “hERG current change (%, negative = inhibition) at 10uM” value was 10.9%.

Regarding `Cc1cc(NC(=O)CN2CCC(n3nnc4cc(C(F)(F)F)ccc43)CC2)no1`, the “hERG current change (%, negative = inhibition) at 10uM” value is -50%.

Take `COc1cccc(NC(=O)CSc2nnc(NC(=O)C3CC3)s2)c1`: the “hERG current change (%, negative = inhibition) at 10uM” value is reported as 17.1%.

For the molecule `COc1ccc(NC(=O)CSc2cc(C)nc3c(-c4ccccc4)cnn23)cc1`, the “hERG current change (%, negative = inhibition) at 10uM” value is 7.75%.

Take `O=C(COc1ccccc1-c1ccccc1)Nc1ccc(S(=O)(=O)NCc2ccco2)cc1`: the “hERG current change (%, negative = inhibition) at 10uM” value is 4.89%.

For the molecule `CCCNC(=O)CN1C(=O)COc2ccc(S(=O)(=O)N3CCCCCC3)cc21`, the “hERG current change (%, negative = inhibition) at 10uM” value is listed as 16.5%.

On to `COc1cc(NC(=S)NCc2cccnc2)cc(OC)c1OC`, for which the “hERG current change (%, negative = inhibition) at 10uM” value came to 27.5%.

As to `O=Cc1cn(CC(=O)Nc2ccccc2)c2ccccc12`, the “hERG current change (%, negative = inhibition) at 10uM” value was determined as 18.1%.

In the case of `Cc1cc(Cl)ccc1OCCCC(=O)N1CCN(C)CC1`, the “hERG current change (%, negative = inhibition) at 10uM” value is reported as -30%.

For `Cc1nn2c(NCCCN(C)C)c3c(nc2c1-c1ccccc1)CCCC3`, the “hERG current change (%, negative = inhibition) at 10uM” value is recorded as -32.2%.

For the molecule `O=C(O)c1ccccc1-c1ccccc1C(=O)NCc1ccccc1F`, the “hERG current change (%, negative = inhibition) at 10uM” value stood at 21.9%.

As to `CNc1ccccc1C(=O)OC`, the “hERG current change (%, negative = inhibition) at 10uM” value stood at 12.3%.

As for `O=C(Nc1ccccc1-c1ccccc1)C1CCCCC1`, the “hERG current change (%, negative = inhibition) at 10uM” value was -1.2%.

Turning to `COc1ccc(/C=N/NC(=O)CCc2n[nH]c(=O)[nH]c2=O)cc1O`, the “hERG current change (%, negative = inhibition) at 10uM” value is 7.12%.

For the molecule `S=C(NC1CCCCC1)N1CCn2cccc2C1c1cccnc1` (centres unmarked), the “hERG current change (%, negative = inhibition) at 10uM” value is given as -8.63%.

Consider `CCCCCc1nc2c(c(=O)c3ccccc3n2C)c(=O)n1C1CCCCCC1`, for which the “hERG current change (%, negative = inhibition) at 10uM” value turned out to be 1.32%.

As to `CCCCN(C)C(=O)c1cn(CC)c2ccc(S(=O)(=O)N(C)C)cc2c1=O`, the “hERG current change (%, negative = inhibition) at 10uM” value came out at 8.08%.

As to `O=[N+]([O-])c1ccc2nc(SCc3cn4cccnc4n3)[nH]c2c1`, the “hERG current change (%, negative = inhibition) at 10uM” value is -14.3%.

As for `CN(CC(=O)NNC(=O)c1cccnc1)S(=O)(=O)c1cc(Cl)ccc1Cl`, the “hERG current change (%, negative = inhibition) at 10uM” value worked out at 3.78%.

`CCC(C)(C)n1nnnc1CN1CCSCC1.Cl`: the “hERG current change (%, negative = inhibition) at 10uM” value was 12%.

For the molecule `Cc1ccc(F)cc1NC(=O)CN1C(=O)NC2(CCCc3ccccc32)C1=O` (centres unmarked), the “hERG current change (%, negative = inhibition) at 10uM” value was -1.5%.

As to `CCN1CCN(C(=O)c2ccc3c(c2)N(Cc2ccccc2)C(=O)c2ccccc2S3=O)CC1` (centres unmarked), the “hERG current change (%, negative = inhibition) at 10uM” value was -16.1%.

With `COC(=O)c1cc(-c2ccc(Br)cc2)c2c(=O)n(C)c(=O)n(C)c2n1`, the “hERG current change (%, negative = inhibition) at 10uM” value was found to be 11.3%.

`COCc1cc(C)nc(NC2CCCCC2)c1C#N`: the “hERG current change (%, negative = inhibition) at 10uM” value was -10.8%.

Regarding `N#CCC(=O)Nc1nc(-c2ccc3c(c2)OCCO3)cs1`, the “hERG current change (%, negative = inhibition) at 10uM” value is 13.1%.

For `CCOC(=O)c1sc(=NC(=O)c2ccc(OC)c(OC)c2)n(C)c1C`, the “hERG current change (%, negative = inhibition) at 10uM” value is listed as 2.13%.

`CC1CN(C(=O)c2ccc(N3CCCCC3)c([N+](=O)[O-])c2)CC(C)O1` (centres unmarked): the “hERG current change (%, negative = inhibition) at 10uM” value is -21.1%.

As to `CC(O)[C@H]1CN=C(N)N1CC(C)(C)C` (some centres unmarked), the “hERG current change (%, negative = inhibition) at 10uM” value turned out to be 14.1%.

In the case of `COc1ccc(-c2cc3ccccc3[nH]2)cc1`, the “hERG current change (%, negative = inhibition) at 10uM” value came to 7.8%.

These data come from article PMC4336329 (PLoS ONE, 2015).
